Test results as given in PubChem BioAssay AID1918958 (Molecular Pharmacology Branch, DTP, NCI, 2023).
Some entries of the source have several records that differ or are many. This list holds those alone. An entry can have further records. The values listed for one entry are repeated measurements across runs, samples, wells, individuals or studies. Brackets with × say how often a value occurs here.

System: NCI-H196 complex spheroid viability
Experiment: Anticancer human tumor NCI-H196 cell line growth inhibition [LSD1];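 further: spheroids exposed to agents for 7 days before readout; 100% = DMSO vehicle control viability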
Details: stronger effect = lower value
Source text: Multicellular complex tumor spheroid response to LSD1 Inhibitor Iadademstat in combination with a variety of drugs and investigational agents in selected tumor cell lines
The current study was undertaken to assess response to LSD1 inhibitors in combination with standard-of-care drugs and investigational agents in solid tumor complex spheroid models as well as in the K-562 leukemia. Complex spheroids include a stromal component modeled by human endothelial cells (HUVEC) and fibroblasts modeled by human mesenchymal stem cells (MSCs). The concentration ranges selected for each drug and investigational agent were based upon clinically achievable concentrations if the clinical Cmax of the agent was known.
Compounds. The drugs and investigational agents used in this study are listed on Table 1. All of the agents used, including staurosporine (NSC755774) and gemcitabine (NSC613327), were obtained from the Developmental Therapeutics Program, NCI. FDA-approved anticancer drugs are available from the NCI at http://dtp.nci.nih.gov/branches/dscb/oncology_drugset_explanation.html. Drugs and investigational agents were >95% pure by proton nuclear magnetic resonance (NMR) and liquid chromatography/mass spectrometry (LC/MS). Stock solutions were prepared at 400x in DMSO, stored at -70 degrees C, and diluted in fresh medium prior to their use. The final concentration of DMSO in cell culture wells never exceeded 0.25% (v/v). The FDA-approved anticancer drug set is available from the Developmental Therapeutics Program at https://dtp.cancer.gov/organization/dscb/obtaining/available_plates.htm. All drugs and investigational agents were tested over a range starting from a high concentration at or near the clinical Cmax and decreasing in half-log increments. If the clinical Cmax for an agent had not been determined, the highest concentration tested was 10 microM.
Cell Lines. […]

SMILES	viability, T/C (compound alone 0.1 µM)	viability, T/C (compound alone 3.16 µM)	viability, T/C (compound alone 10 µM)
NC1CCC(NC2CC2c2ccccc2)CC1 (stereo not drawn)	94.8, 88.3, 89.1, 85.6, 93.4, 93.3, 115, 100 (2×), 94.9, 101, 94.2, 102, 96, 98.1, 107 (2×), 106, 97.3, 103, 104, 92.2, 97.4, 97.5, 98.6%		
NC1CC1c1ccc(-c2cccc(O)c2)cc1 (stereo not drawn)		111, 92.7, 92, 104 (2×), 96.8, 108, 98.6, 96.1, 89.2, 100, 81.2, 98.9, 103 (2×), 101, 97, 90.2, 98.2, 107, 93.2, 102, 106, 97.3, 95.7%	97.6, 92.5, 93.2, 110 (2×), 91.9, 101, 96.5, 87, 94.6, 95.9, 84, 94.5, 108, 95.2, 87.6, 93.8, 91.6, 97.2, 92.1, 94.2, 99.6, 99.4, 98.1, 99.2%
